# Data from the BET-seq Pho4 binding data (Le et al. 2018).
# The other results are listed elsewhere or left out. These are noisy estimates, calculated here from bound and input reads.
# Molecular target: T1, Pho4 (S. cerevisiae) (UniProt P07270)
# T1 sequence: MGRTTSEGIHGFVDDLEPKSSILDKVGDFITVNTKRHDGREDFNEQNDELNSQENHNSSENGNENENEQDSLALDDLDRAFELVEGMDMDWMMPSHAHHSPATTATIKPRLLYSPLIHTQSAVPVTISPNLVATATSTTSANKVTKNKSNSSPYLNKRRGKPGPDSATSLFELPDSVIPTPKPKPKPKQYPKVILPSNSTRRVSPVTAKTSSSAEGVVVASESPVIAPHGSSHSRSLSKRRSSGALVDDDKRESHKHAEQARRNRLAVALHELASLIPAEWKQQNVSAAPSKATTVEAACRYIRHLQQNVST
# Assay: relative binding free energy (BET-seq); higher = weaker binding
# Details: reference: library average
row,Sequence,relative binding free energy
1,GCGAGCACGTGGTGAT,-0.09 kcal/mol
2,TTTCTCACGTGATGAA,0.49 kcal/mol
3,GTTAACACGTGAGGGG,0.3 kcal/mol
4,GGGTCCACGTGTGTGA,0.03 kcal/mol
5,TGTAGCACGTGGTGAA,-0.17 kcal/mol
6,GCTTTCACGTGATAGT,0.22 kcal/mol
7,CGTGCCACGTGGGGGG,-0.27 kcal/mol
8,CTGTTCACGTGGAGGC,0.16 kcal/mol
9,GTACGCACGTGGTCGT,-0.21 kcal/mol
10,GGCCTCACGTGGTATG,0.25 kcal/mol
11,TGTTACACGTGTTTTC,0.16 kcal/mol
12,CTTGTCACGTGAGAGT,0.21 kcal/mol
13,GGGGGCACGTGTGCGA,-0.08 kcal/mol
14,AGCTGCACGTGTTGTA,-0.05 kcal/mol
15,TCGGGCACGTGATAGG,0 kcal/mol
16,GTGGCCACGTGGCGGA,-0.05 kcal/mol
17,GCGGTCACGTGAGGCT,0.39 kcal/mol
18,GTGTTCACGTGTTTTA,0.34 kcal/mol
19,GATTGCACGTGCGTGT,0.07 kcal/mol
20,TTGGGCACGTGATCTT,-0.12 kcal/mol
21,AGATGCACGTGGGGGT,-0.12 kcal/mol
22,TGAGTCACGTGGTCTT,0.12 kcal/mol
23,TGGTGCACGTGTGGGC,0.08 kcal/mol
24,GGAATCACGTGTCTGT,0.32 kcal/mol
25,TGGCGCACGTGGGAGA,-0.06 kcal/mol
26,TAATACACGTGTGATT,0.09 kcal/mol

row,Sequence,relative binding free energy
1,TTCTACACGTGTAGGT,0.04 kcal/mol
2,AGGCGCACGTGGGTTA,-0.27 kcal/mol
3,AAGTTCACGTGATGCG,0.21 kcal/mol
4,GTTAGCACGTGCTGGC,-0.11 kcal/mol
5,TGGAGCACGTGAGGCG,0.23 kcal/mol
6,AGTTACACGTGTTAGT,0.13 kcal/mol
7,CCTGACACGTGTGTGG,0.04 kcal/mol
8,GCCATCACGTGGGGTG,0.07 kcal/mol
9,GTGAGCACGTGCTGGA,-0.11 kcal/mol
10,TGTCTCACGTGATGTG,0.26 kcal/mol
11,TTGAGCACGTGGCTTG,-0.03 kcal/mol
12,GCTGGCACGTGGCAGG,-0.23 kcal/mol
13,CTTTTCACGTGGTGTG,0.1 kcal/mol
14,GGTTGCACGTGCAAGG,0.01 kcal/mol
15,TTCTTCACGTGTGAGA,0.3 kcal/mol
16,AGATACACGTGTAAGG,0.31 kcal/mol
17,TCAAGCACGTGGTATT,-0.1 kcal/mol
18,TGCGCCACGTGTAGGT,-0.09 kcal/mol
19,GTCGTCACGTGCTGTT,0.04 kcal/mol
20,TGGTGCACGTGCACGT,-0.23 kcal/mol
21,CTTTTCACGTGTGGGC,0.39 kcal/mol
22,TGTGGCACGTGGTTAC,-0.13 kcal/mol
23,TATACCACGTGGGGGT,-0.26 kcal/mol
24,TGACGCACGTGCGGAG,-0.1 kcal/mol
25,AGATTCACGTGGCGAT,0.19 kcal/mol
26,TGGTGCACGTGTATGG,0.04 kcal/mol

row,Sequence,relative binding free energy
1,CGGTTCACGTGCATTT,0.29 kcal/mol
2,TTGTACACGTGCGTGT,0.01 kcal/mol
3,TTATTCACGTGAGTTA,0.37 kcal/mol
4,GGTATCACGTGTGTGA,0.18 kcal/mol
5,GGGATCACGTGCGTTG,0.16 kcal/mol
6,TATTTCACGTGTTGAA,0.41 kcal/mol
7,GTTGACACGTGTTCGG,0.21 kcal/mol
8,GTTTTCACGTGTCTAT,0.34 kcal/mol
9,TTCAGCACGTGGGGTT,-0.18 kcal/mol
10,ATGTGCACGTGGGGCA,-0.27 kcal/mol
11,GGTTTCACGTGGTACA,0.29 kcal/mol
12,GTATGCACGTGTAGAG,-0.07 kcal/mol
13,TGTGACACGTGGATAT,0.01 kcal/mol
14,TTTTGCACGTGTGAAT,0.23 kcal/mol
15,CTTAACACGTGGTGTG,-0.14 kcal/mol
16,GTTTGCACGTGGGATG,0.03 kcal/mol
17,TTAGGCACGTGTCGTA,-0.11 kcal/mol
18,TTGAGCACGTGTGTGG,-0.07 kcal/mol
19,TATAACACGTGTGCTG,-0.07 kcal/mol
20,TTTAGCACGTGTTGCT,0.04 kcal/mol
21,GGTGACACGTGGTGTT,-0.05 kcal/mol
22,GCTTGCACGTGGGGGC,-0.18 kcal/mol
23,CAAGGCACGTGGATGA,0.02 kcal/mol
24,CTGATCACGTGCGGGG,0.09 kcal/mol
25,TGGGGCACGTGCTGCC,-0.11 kcal/mol
26,AAATTCACGTGGATGG,0.28 kcal/mol

row,Sequence,relative binding free energy
1,TTTGTCACGTGCTAAA,0.08 kcal/mol
2,TTAGGCACGTGCGAAT,-0.03 kcal/mol
3,CAGTACACGTGTTTTT,0.05 kcal/mol
4,GATGGCACGTGATTAA,-0.04 kcal/mol
5,GAGTACACGTGGTAAT,0.21 kcal/mol
6,GTGGACACGTGCGAGG,-0.02 kcal/mol
7,AAAGACACGTGGTATG,0.02 kcal/mol
8,CTAGTCACGTGATATT,0.25 kcal/mol
9,TTGGTCACGTGAAAAT,0.28 kcal/mol
10,TACTGCACGTGATGTA,0.02 kcal/mol
11,TACTGCACGTGGGATG,-0.22 kcal/mol
12,TGTGGCACGTGAGGGA,0.08 kcal/mol
13,TATTTCACGTGTGTAA,0.16 kcal/mol
14,AGCGTCACGTGAATAG,0.44 kcal/mol
15,TAAGGCACGTGGAGGT,-0.14 kcal/mol
16,CGTTCCACGTGAGGGT,0.26 kcal/mol
17,TGAGTCACGTGCGGTA,0.18 kcal/mol
18,TGGTGCACGTGCATGA,-0.16 kcal/mol
19,GTTGTCACGTGTATAC,0.11 kcal/mol
20,ACATGCACGTGTTAGG,-0.03 kcal/mol
21,GGCGGCACGTGCGGCG,-0.07 kcal/mol
22,ATACTCACGTGGTTTT,0.04 kcal/mol
23,GTGGCCACGTGGGTTT,-0.2 kcal/mol
24,ACAGTCACGTGTGTTG,0.16 kcal/mol
25,ACATGCACGTGGTAGT,-0.16 kcal/mol
26,GATATCACGTGGTGGT,0.11 kcal/mol

row,Sequence,relative binding free energy
1,TGTTTCACGTGTGTTC,0.33 kcal/mol
2,TGTATCACGTGGTAAG,0.11 kcal/mol
3,CGGTACACGTGGTTCG,0.09 kcal/mol
4,CTGAACACGTGTGGTG,0.18 kcal/mol
5,CGGTACACGTGTGTTG,0.15 kcal/mol
6,GTGAGCACGTGATGTG,0.01 kcal/mol
7,TTCGGCACGTGCTATG,-0.1 kcal/mol
8,ATAATCACGTGGTCGT,0.06 kcal/mol
9,TTTCGCACGTGTAATA,0.05 kcal/mol
10,CTGAGCACGTGTTTTT,-0.13 kcal/mol
11,GCTATCACGTGGTGGT,-0.03 kcal/mol
12,TTTCTCACGTGTGATA,0.52 kcal/mol
13,GTTTACACGTGTTGGG,0.21 kcal/mol
14,GAGTTCACGTGATATA,0.51 kcal/mol
15,CGGTGCACGTGGGATT,-0.06 kcal/mol
16,GGGTACACGTGCCGGG,0.05 kcal/mol
17,CGGTGCACGTGGTGTG,-0.14 kcal/mol
18,ATTGTCACGTGGCTGG,0.04 kcal/mol
19,ATGTTCACGTGCGGAT,0.23 kcal/mol
20,GGTCTCACGTGGTGTT,0.33 kcal/mol
21,GTCGGCACGTGTCAGT,0.07 kcal/mol
22,GTGTGCACGTGACGGC,0.09 kcal/mol
23,AGTTTCACGTGAGCAG,0.33 kcal/mol
24,TGGGACACGTGATGCA,0.12 kcal/mol
25,ACAGTCACGTGGATTG,0.01 kcal/mol
26,GGAGGCACGTGTATGC,0.05 kcal/mol

row,Sequence,relative binding free energy
1,CTTATCACGTGTTAGT,0.1 kcal/mol
2,GGTGGCACGTGGCGAA,-0.01 kcal/mol
3,CTACGCACGTGGGGTG,-0.4 kcal/mol
4,TTGTTCACGTGGGATA,0.25 kcal/mol
5,TTAAGCACGTGCAGTA,0.03 kcal/mol
6,AGCGGCACGTGGGTGG,-0.25 kcal/mol
7,TGGGGCACGTGGTGTT,-0.12 kcal/mol
8,TGGAACACGTGGTGTT,-0.07 kcal/mol
9,TGTATCACGTGTGCAT,0.06 kcal/mol
10,AGTGGCACGTGGAGTA,-0.18 kcal/mol
11,ATACTCACGTGTAGTG,0.05 kcal/mol
12,GTTGACACGTGAGGGT,0.33 kcal/mol
13,GTTAACACGTGATTGT,0.29 kcal/mol
14,TGGATCACGTGCTGTA,-0.11 kcal/mol
15,CATTTCACGTGTGGTT,0.3 kcal/mol
16,TAGGGCACGTGATTCA,0.04 kcal/mol
17,TGTGTCACGTGTTCGG,0.15 kcal/mol
18,CGTAGCACGTGGTATT,-0.21 kcal/mol
19,CTTAGCACGTGATTTG,0.1 kcal/mol
20,GGTTTCACGTGGAGTC,0.37 kcal/mol
21,TTGTTCACGTGTACAT,0.3 kcal/mol
22,GGAGTCACGTGGCAGG,0.06 kcal/mol
23,TATGGCACGTGTTAAG,-0.06 kcal/mol
24,GGAATCACGTGGAATA,0.47 kcal/mol
25,TTTGACACGTGAGTAT,0.28 kcal/mol
26,AGGGTCACGTGGGGTA,-0.05 kcal/mol

row,Sequence,relative binding free energy
1,GATAGCACGTGTTCGG,0.02 kcal/mol
2,ATTTTCACGTGATTAG,0.27 kcal/mol
3,TACTTCACGTGAGTTT,0.41 kcal/mol
4,CAATTCACGTGTGGAT,0.21 kcal/mol
5,AGTGGCACGTGGCGTC,-0.17 kcal/mol
6,ATTTCCACGTGAGTGT,0.11 kcal/mol
7,TTAAGCACGTGACAGT,0.06 kcal/mol
8,GTTATCACGTGATAAG,0.16 kcal/mol
9,ACGGTCACGTGAGCGG,0.12 kcal/mol
10,AGGGACACGTGTTTGC,0.01 kcal/mol
11,GGGTCCACGTGATAGT,0.14 kcal/mol
12,AGGTGCACGTGGGGAC,-0.1 kcal/mol
13,GGAGCCACGTGATTGT,0.09 kcal/mol
14,TGAGTCACGTGCGGGT,-0.04 kcal/mol
15,TAAAGCACGTGGTATG,-0.25 kcal/mol
16,TTCATCACGTGGAGTG,0.11 kcal/mol
17,CGAGGCACGTGTAGTG,0.02 kcal/mol
18,TCTTTCACGTGGAGGG,0.2 kcal/mol
19,GTGGGCACGTGACTCG,0.14 kcal/mol
20,AGTAGCACGTGTGAAT,0.07 kcal/mol
21,TTCGGCACGTGGGCGG,-0.27 kcal/mol
22,TTTGTCACGTGAGGGA,0.33 kcal/mol
23,AGCATCACGTGTTAGT,0.1 kcal/mol
24,ATTTGCACGTGCAGTG,0.06 kcal/mol
25,AGTGGCACGTGCAGGC,-0.16 kcal/mol
26,CGTGTCACGTGAGTAG,0.13 kcal/mol

row,Sequence,relative binding free energy
1,GTGTGCACGTGCGAGT,0.05 kcal/mol
2,CGATGCACGTGCGTGG,-0.07 kcal/mol
3,TGTAACACGTGTAGTT,0 kcal/mol
4,GTGTTCACGTGACGGT,0.36 kcal/mol
5,AGGAGCACGTGTTATG,-0.01 kcal/mol
6,TTGGCCACGTGATGTT,0.1 kcal/mol
7,TCTTTCACGTGAGGGT,0.5 kcal/mol
8,GTCTACACGTGGAGGT,0.17 kcal/mol
9,GGCGACACGTGAGATG,0.41 kcal/mol
10,GGTTCCACGTGCTATG,0.22 kcal/mol
11,TTAGCCACGTGAGGTT,0.12 kcal/mol
12,TTGTTCACGTGGCTTA,0.11 kcal/mol
13,GGTGGCACGTGCGCAG,-0.31 kcal/mol
14,GGACACACGTGGATGG,0.24 kcal/mol
15,TTTTTCACGTGAGACT,0.47 kcal/mol
16,TGTCTCACGTGAGTGA,0.21 kcal/mol
17,GGGATCACGTGAGTGG,0.3 kcal/mol
18,AGATGCACGTGGGTTG,-0.09 kcal/mol
19,CGGGGCACGTGCGGGC,-0.25 kcal/mol
20,AGCATCACGTGAGGTG,0.3 kcal/mol
21,TAAATCACGTGATAAT,0.32 kcal/mol
22,TATGGCACGTGGAAGA,-0.02 kcal/mol
23,TCGTTCACGTGTGTCG,0.13 kcal/mol
24,GGTTTCACGTGATACG,0.42 kcal/mol
25,GTGTGCACGTGATATA,0.16 kcal/mol
26,GAGTTCACGTGGGGGT,0.25 kcal/mol

row,Sequence,relative binding free energy
1,TTGTACACGTGAGTGC,0.25 kcal/mol
2,ACGGGCACGTGGAGAG,-0.04 kcal/mol
3,GGTGTCACGTGGGACA,-0.01 kcal/mol
4,ATAGCCACGTGAGTGT,0.02 kcal/mol
5,ATGAGCACGTGTTGAT,-0.11 kcal/mol
6,CAAGGCACGTGTTTTA,0.03 kcal/mol
7,CAACTCACGTGGTGGG,0.18 kcal/mol
8,TTCTACACGTGTTGGT,0.19 kcal/mol
9,AGGGGCACGTGTCGCT,-0.25 kcal/mol
10,ATTATCACGTGTTGCT,0.24 kcal/mol
11,GGTAACACGTGCTTGG,-0.02 kcal/mol
12,ATTATCACGTGCTATG,0.04 kcal/mol
13,ATCGACACGTGTAGGT,0.16 kcal/mol
14,GTAAGCACGTGCTAGG,-0.13 kcal/mol
15,CAGCTCACGTGGGGTT,0.24 kcal/mol
16,TGTAACACGTGTGTTT,0.12 kcal/mol
17,TTGATCACGTGGGTTT,0.13 kcal/mol
18,GTATGCACGTGAAGGG,0.25 kcal/mol
19,GGTCTCACGTGGTGAC,0.45 kcal/mol
20,TTGTGCACGTGTTTGC,-0.03 kcal/mol
21,TTGGACACGTGAGTAC,0.33 kcal/mol
22,TAGTGCACGTGTAATA,0.09 kcal/mol
